Assay results as given in PubChem BioAssay AID904 (National Center for Advancing Translational Sciences (NCATS), 2007).
About 530 (0.96%) of roughly 55,000 compounds were called active. This list was built around the results that the source calls inconclusive (neither active nor inactive); the mix of calls is not that of the screen. The call rests on the fitted dose curve; in most records, active means well fitted cell-killing curve with a large enough effect; inconclusive means small, poorly fitted or top-dose-only effect; inactive means no such curve, though single readings can be large or run the other way. Where the call is inconclusive, the potency comes from a doubtful curve fit.

assay: qHTS Screen for Compounds that Selectively Target Cancer Cells with p53 Mutations: Cytotoxicity of p53 Null Cells at the Nonpermissive Temperature; details: H1299 p53-null (neo) cells, 39C, ATPlite viability, 24 h; activity, negative = cell killing: at 46.1 µM (top of the series); further: nearly all actives have a fitted effect of over 50% in size;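 on activity, negative = cell killing: 0% = DMSO only and -100% = full killing by 100 µM tamoxifen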
Method in brief: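 Following overnight plating at 37C (600 cells/well), H1299-neo or H1299-p53A138V cells are dosed up to 46 uM. Incubation lasts 24 hr at 39C before ATP detection.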
Potency means the concentration at half of the fitted maximal effect; tags describe the fitted curve by direction and shape.

SMILES	Potency	activity, negative = cell killing
COc1ccc(-c2cn3ccc4ccccc4c3n2)cc1	inconclusive: 17.8 µM [cytotoxic, single point]	–
Cc1ccc(-n2ncc(C(=O)NCCN3CCCC3)c2C2CCN(C(=O)OC(C)(C)C)CC2)cc1C	inconclusive: 11.2 µM [cytotoxic, single point]	–
CCCCn1nc(NC(=O)c2cccc(Cl)c2)c2cc3cccc(C)c3nc21	inconclusive: 0.0794 µM [cytotoxic, full curve, poor fit]	–
Cc1ccc(NC(=O)CN(C)S(=O)(=O)c2ccc3nc(C)sc3c2)c(C)c1	inconclusive: 0.01 µM [cytotoxic, full curve, poor fit]	–
CCc1cccc(C)c1NC(=O)Cn1ccn(-c2ccc(F)cc2)c(=O)c1=O	inconclusive: 0.0158 µM [cytotoxic, full curve, poor fit]	–
CCOC(=O)c1c(NC(=O)c2ccc(S(=O)(=O)N(CCOC)CCOC)cc2)sc2c1CC(C)(C)NC2(C)C	–	inactive: 4.57%
CC(C)(C)CC(C)(C)NC(=O)CSCC(=O)Nc1ccc2ccccc2c1	inconclusive: 15.8 µM [cytotoxic, single point]	–
CCC1CCCCN1CC(=O)N1CCCc2c1c(=O)oc1ccc(OCc3ccccc3)cc21 (stereo not drawn)	inconclusive: 35.5 µM [cytotoxic, single point]	–
COc1ccc(-c2nc(Cn3c(SCc4ccc(C)cc4)nc4cccnc43)c(C)o2)cc1OC	inconclusive: 11.2 µM [cytotoxic, partial curve]	–
Cc1ccc(NC(=O)N(Cc2cn(C)c3ccccc23)C2CCCCC2)cc1C	inconclusive: 7.94 µM [cytotoxic, partial curve]	–
Cc1cc(C)cc(OCC(=O)Nc2ccc(-c3nc4ccccc4s3)cc2)c1	–	inactive: 0.688%
Cc1ccccc1NC(=O)c1sc2nc(-c3ccncc3)ccc2c1N	inconclusive: 12.6 µM [cytotoxic, single point]	–
CN(Cc1ccccc1)C(=O)c1cc2c(=O)n(C)c3ccccc3c2s1	inconclusive: 7.94 µM [cytotoxic, partial curve, poor fit]	–
COc1cccc(OCc2nc3ccccc3n2CCOc2ccccc2)c1	inconclusive: 22.4 µM [cytotoxic, partial curve, poor fit]	–
CCOC(=O)c1cn(CC(=O)Nc2cccc(Cl)c2C)nn1	inconclusive: 0.0178 µM [cytotoxic, full curve, poor fit]	–
CCc1ccc(-n2nc(CO)c(C(=O)NCc3ccccn3)n2)cc1	inconclusive: 31.6 µM [cytotoxic, single point]	–
CCN(CCCNC(=O)c1cc2cc3cc(C)ccc3nc2s1)c1cccc(C)c1	inconclusive: 0.158 µM [cytotoxic, full curve, poor fit]	–
Cc1cc(C)cc(-n2ccn(CC(=O)Nc3ccccc3C(F)(F)F)c(=O)c2=O)c1	inconclusive: 0.251 µM [cytotoxic, full curve]	–
O=C(NCC(c1ccco1)S(=O)(=O)c1ccc(Cl)cc1)c1ccccc1F (stereo not drawn)	inconclusive: 0.0126 µM [cytotoxic, full curve, poor fit]	–

SMILES	Potency	activity, negative = cell killing
O=S(=O)(c1cccc(C(F)(F)F)c1)n1c(/C=C/c2ccccc2)nc2ccccc21	inconclusive: 15.8 µM [cytotoxic, single point]	–
Cc1cc(N2CCCCC2)nc2ccc(NC(=O)c3cccc(F)c3)cc12	inconclusive: 10 µM [cytotoxic, partial curve, poor fit]	–
CC1CCN(S(=O)(=O)c2ccc3c(c2)N(CC(=O)NC(C)c2ccccc2)C(=O)CO3)CC1 (stereo not drawn)	inconclusive: 10 µM [cytotoxic, single point]	–
Cn1c(=O)n(C)c2cc(NS(=O)(=O)c3ccc(Br)cc3)c(NCc3ccccc3)cc21	inconclusive: 20 µM [cytotoxic, partial curve]	–
CCOC(=O)c1ccc(N2C(=O)c3n[nH]c(-c4cccs4)c3C2c2cccc(F)c2)cc1 (stereo not drawn)	inconclusive: 35.5 µM [cytotoxic, single point]	–
O=C(Nc1ccccc1)N1CCc2ccccc21	inconclusive: 10 µM [cytotoxic, partial curve]	–
CCCC(=O)OC1=CN(Cc2ccccc2)S(=O)(=O)c2ccccc21	–	inactive: 0.814%
O=C(Cn1cc(SCc2cccc(F)c2)c2ccccc21)N1CCOCC1	inconclusive: 31.6 µM [cytotoxic, single point]	–
CCc1cccc(NC(=O)Nc2csc3c2CCCC3)c1	inconclusive: 31.6 µM [cytotoxic, partial curve]	–
CCC1CCCCN1CCCNC(=O)c1cc2c(Cl)nc3ccccc3c2s1 (stereo not drawn)	inconclusive: 31.6 µM [cytotoxic, partial curve, poor fit]	–
Cc1ccc2nc(-c3ccc(O)cc3)c(Nc3ccc4c(c3)OCCO4)n2c1	inconclusive: 6.31 µM [cytotoxic, partial curve]	–
COc1cc(OC)cc(C(=O)Nc2ccc3nc(N4CCCCC4)cc(C)c3c2)c1	inconclusive: 11.2 µM [cytotoxic, single point]	–
COc1ccc(C(CNC(=O)c2oc3ccc(C)cc3c2C)N2CCOCC2)cc1 (stereo not drawn)	inconclusive: 5.62 µM [cytotoxic, single point]	–
CC(C)(C)N(Cc1ccccc1)C(=O)COC(=O)CCc1c[nH]c2ccccc12	inconclusive: 3.16 µM [cytotoxic, single point]	–
Cc1cc(C)cc(NS(=O)(=O)c2ccc3c(c2)NC(=O)C(C)S3)c1 (stereo not drawn)	inconclusive: 5.01 µM [cytotoxic, full curve, poor fit]	–
CCN(CC)S(=O)(=O)c1nnc(NC(=O)COc2ccc(Cl)cc2)s1	inconclusive: 0.0079 µM [cytotoxic, full curve]	–
CCOc1cc(CNc2ccc(O)cc2)ccc1OCc1ccc(Cl)cc1	inconclusive: 25.1 µM [cytotoxic, single point]	–
CCOc1ccc(NC(=O)C(NC(=O)C2CCC(C)CC2)C(C)C)cc1 (stereo not drawn)	inconclusive: 0.0112 µM [cytotoxic, full curve]	–
COc1cc(-c2nc(Cn3nnc(C(=O)Nc4cc(C)cc(C)c4)c3C)c(C)o2)cc(OC)c1OC	–	inactive: 17.8%
